The record followed here is US9550741B2, “Benzoisothiazole compounds and methods of treating schizophrenia” (SHANGHAI INSTITUTE OF PHARMACEUTICAL INDUSTRY, priority 2013, dated 2017).

Usually Ki stands for a dissociation constant, usually derived from enzyme kinetics or from competition with a known ligand.

Where two headings read alike, the source gives them in different places.

The target in test [1] is 5-HT2A receptor (Homo sapiens (Human), UniProt P28223). Nature of the test: 5-HT2A receptor binding test. An excerpt: (§1) Beckman LS-6500 multifunction liquid scintillation counter.
Test [2] has as its target 5-HT1A receptor (Homo sapiens (Human), UniProt P08908). Nature of the test: 5-HT1A receptor binding test. To be noted: [3H]8-OH-DPAT, HEK-293 cells expressing 5-HT1A receptors. How it is done:
Cells: HEK-293 cells stably expressing 5-HT1A receptors as obtained by gene recombination are cultured for 3-5 days in cell culture medium DMEM supplemented with 10% serum.
Competitive inhibition ratio of each compound at the concentration of 10 μmol/L to inhibit the binding of [^3H]8-OH-DPAT to 5-HT1A receptor is determined for primary screening.
The components are mixed to homogeneity, and then the above tubes are transferred to water bath at 30° C. (1 h), removed into ice bath immediately, and suction filtered on Harvest (with ice cold Tris eluate for 5 times).

For test [3], the target named is D2 receptor (Homo sapiens (Human), UniProt P14416). As to the kind of experiment: Dopamine D2 receptor binding test. The conditions noted are these: [3H]Spiperone, D2 receptor expressed in HEK293 cells; read-out: Affinity of the compound to D2 receptor, Ki value.
Text: This experiment utilizes the plasmid vector containing the gene of D2 receptor protein for transfecting HEK293 cells by calcium phosphate transfection method.
as §1

Test [4] has as its target human recombinant D3 receptor (Homo sapiens (Human), UniProt P35462). Nature of the test: Dopamine D3 receptor binding test. The conditions noted are these: [3H]methyl-spiperone 0.3 nM, human recombinant D3 receptor in CHO cells; read-out: Affinity of the compound to D3 receptor, Ki value. How it is done:
With [^3H]methyl-spiperone (0.3 nM) as the ligand and (+)-butaclamol (10 LM) for determining non-specific binding, binding tests are carried out on human recombinant D3 receptor (expressed in CHO cells).

Where [5] appears, read: read-out: Affinity of the compound to 5-HT2A receptor, Ki value.
Where [6] appears, read: read-out: Affinity of the compound to 5-HT1A receptor, Ki value.
Setting [7] is: read-out: Affinity of the compound to 5-HT2A receptor, Ki value, [3H]-Ketanserin, 5-HT2A receptor expressed in HEK293 cells.

UniProt P28223, sequence (P28223 whole entry): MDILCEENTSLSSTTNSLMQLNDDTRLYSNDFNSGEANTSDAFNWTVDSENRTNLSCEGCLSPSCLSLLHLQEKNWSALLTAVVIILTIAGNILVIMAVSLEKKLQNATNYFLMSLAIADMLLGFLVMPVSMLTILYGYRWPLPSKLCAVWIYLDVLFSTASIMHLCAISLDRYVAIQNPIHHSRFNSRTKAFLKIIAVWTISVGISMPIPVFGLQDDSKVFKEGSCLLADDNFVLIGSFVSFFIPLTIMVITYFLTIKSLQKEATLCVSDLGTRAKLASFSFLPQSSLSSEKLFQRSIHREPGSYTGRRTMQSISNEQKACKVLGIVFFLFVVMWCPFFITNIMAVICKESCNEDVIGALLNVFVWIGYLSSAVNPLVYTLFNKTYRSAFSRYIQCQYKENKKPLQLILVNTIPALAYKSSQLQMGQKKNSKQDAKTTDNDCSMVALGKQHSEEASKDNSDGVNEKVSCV
UniProt P08908, sequence (P08908 whole entry): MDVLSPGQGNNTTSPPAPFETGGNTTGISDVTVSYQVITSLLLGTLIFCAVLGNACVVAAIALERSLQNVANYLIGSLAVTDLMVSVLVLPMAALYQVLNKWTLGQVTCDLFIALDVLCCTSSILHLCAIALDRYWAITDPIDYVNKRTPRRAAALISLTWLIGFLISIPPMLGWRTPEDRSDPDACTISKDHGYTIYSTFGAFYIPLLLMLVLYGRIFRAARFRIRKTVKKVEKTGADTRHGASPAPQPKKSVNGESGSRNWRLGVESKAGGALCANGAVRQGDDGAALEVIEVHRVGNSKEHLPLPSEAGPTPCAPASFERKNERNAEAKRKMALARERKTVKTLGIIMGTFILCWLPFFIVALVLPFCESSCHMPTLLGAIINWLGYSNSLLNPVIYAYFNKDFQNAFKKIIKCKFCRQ
UniProt P35462, sequence (P35462 whole entry): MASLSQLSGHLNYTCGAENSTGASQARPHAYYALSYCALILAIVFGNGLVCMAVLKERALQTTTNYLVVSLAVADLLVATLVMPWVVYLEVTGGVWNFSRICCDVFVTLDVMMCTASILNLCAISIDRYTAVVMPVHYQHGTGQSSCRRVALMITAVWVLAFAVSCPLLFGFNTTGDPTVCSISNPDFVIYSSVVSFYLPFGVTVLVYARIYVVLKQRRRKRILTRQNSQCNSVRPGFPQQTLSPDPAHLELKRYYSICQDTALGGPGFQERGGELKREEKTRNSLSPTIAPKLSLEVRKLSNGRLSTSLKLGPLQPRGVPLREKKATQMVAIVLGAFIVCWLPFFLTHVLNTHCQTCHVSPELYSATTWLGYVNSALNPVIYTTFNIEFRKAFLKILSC
UniProt P14416, sequence (P14416 whole entry): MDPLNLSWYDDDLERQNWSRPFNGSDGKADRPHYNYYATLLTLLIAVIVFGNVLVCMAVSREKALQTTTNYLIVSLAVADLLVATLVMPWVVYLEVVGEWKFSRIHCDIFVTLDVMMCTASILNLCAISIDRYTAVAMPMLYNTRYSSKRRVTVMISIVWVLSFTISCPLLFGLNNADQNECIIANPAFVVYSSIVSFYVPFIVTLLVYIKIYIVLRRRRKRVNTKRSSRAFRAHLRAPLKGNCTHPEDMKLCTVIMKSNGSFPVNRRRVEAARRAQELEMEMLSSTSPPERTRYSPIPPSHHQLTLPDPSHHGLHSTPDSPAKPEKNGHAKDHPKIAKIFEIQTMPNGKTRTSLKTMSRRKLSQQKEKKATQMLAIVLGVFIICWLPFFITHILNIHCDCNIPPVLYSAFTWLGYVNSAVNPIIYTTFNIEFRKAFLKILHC

In the case of `Cc1ccc(S(=O)(=O)N[C@H]2CC[C@H](CCN3CCN(c4nsc5ccccc45)CC3)CC2)o1` [II-9, trans-N-(4-(2-(4-(benzo[d]isothiazol-3-yl)piperazin-1-yl)ethyl)cyclohexyl)-5-methylfuryl-2-sulfamide], the Ki was 2.01 nM in test [1] (setting [5]), 2.1 nM in test [2] (setting [6]), 7.38 nM in test [3] and 1.73 nM in test [4].

With `O=S(=O)(N[C@H]1CC[C@H](CCN2CCN(c3nsc4ccccc34)CC2)CC1)c1cc2cc(Cl)ccc2s1` [II-11, trans-N-(4-(2-(4-(benzo[d]isothiazol-3-yl)piperazin-1-yl)ethyl)cyclohexyl)-5-chlorobenzo[b]thienyl-2-sulfamide], the Ki was found to be 3.39 nM in test [1] (setting [7]), 18.4 nM in test [2] (setting [6]), 9.76 nM in test [3] and 3.6 nM in test [4].

`N#Cc1ccc2sc(S(=O)(=O)N[C@H]3CC[C@H](CCN4CCN(c5nsc6ccccc56)CC4)CC3)cc2c1` [II-12, trans-N-(4-(2-(4-(benzo[d]isothiazol-3-yl)piperazin-1-yl)ethyl)cyclohexyl)-5-cyanobenzo[b]thienyl-2-sulfamide]: the Ki was 5.2 nM in test [1] ([3H]-Ketanserin, 5-HT2A receptor expressed in HEK293 cells); 1.99 nM in test [2]; 8.82 nM in test [3]; 1.99 nM in test [4].

For the molecule `Cc1ccc2sc(S(=O)(=O)N[C@H]3CC[C@H](CCN4CCN(c5nsc6ccccc56)CC4)CC3)cc2c1` [II-13, trans-N-(4-(2-(4-(benzo[d]isothiazol-3-yl)piperazin-1-yl)ethyl)cyclohexyl)-5-methylbenzo[b]thienyl-2-sulfamide], the Ki in test [1] (setting [7]) is 0.93 nM; in test [2] (setting [6]), 8.66 nM; in test [3] it was 4.5 nM; in test [4], 0.85 nM.

In the case of `O=[N+]([O-])c1ccc2sc(S(=O)(=O)N[C@H]3CC[C@H](CCN4CCN(c5nsc6ccccc56)CC4)CC3)cc2c1` [II-14, trans-N-(4-(2-(4-(benzo[d]isothiazol-3-yl)piperazin-1-yl)ethyl)cyclohexyl)-5-nitrobenzo[b]thienyl-2-sulfamide], the Ki in test [1] (setting [5]) stood at 4.62 nM; in test [2] (setting [6]) it was 12.8 nM; in test [3], 6.49 nM; in test [4] it was 9.37 nM.

Regarding `O=S(=O)(N[C@H]1CC[C@@H](CCN2CCN(c3nsc4ccccc34)CC2)CC1)c1ccco1` [II-18, cis-N-(4-(2-(4-(benzo[d]isothiazol-3-yl)piperazin-1-yl)ethyl)cyclohexyl)furyl-2-sulfamide], the Ki was 0.74 nM in test [1] (setting [7]), 2.54 nM in test [2] (setting [6]), 1.22 nM in test [3] and 5.37 nM in test [4].

As for `O=S(=O)(N[C@H]1CC[C@@H](CCN2CCN(c3nsc4ccccc34)CC2)CC1)c1cc2ccccc2s1` [II-19, cis-N-(4-(2-(4-(benzo[d]isothiazol-3-yl)piperazin-1-yl)ethyl)cyclohexyl)benzo[b]thienyl-2-sulfamide], the Ki in test [1] (setting [7]) came out at 2.05 nM; in test [2] (setting [6]), 7.03 nM; in test [3], 1.78 nM; in test [4] it was 1.7 nM.

Consider `Cc1ccc(S(=O)(=O)N[C@H]2CC[C@@H](CCN3CCN(c4nsc5ccccc45)CC3)CC2)o1` [II-22, cis-N-(4-(2-(4-(benzo[d]isothiazol-3-yl)piperazin-1-yl)ethyl)cyclohexyl)-5-methylfuryl-2-sulfamide], for which the Ki in test [1] (setting [5]) turned out to be 1.65 nM; in test [2] (setting [6]), 2.02 nM; in test [3] it was 2.09 nM; in test [4] it was 1.44 nM.

Take `O=C(N[C@H]1CC[C@H](CCN2CCN(c3nsc4ccccc34)CC2)CC1)OCc1cc2ccccc2o1` [III-12, trans-(4-(2-(4-(benzo[d]isothiazol-3-yl)piperazin-1-yl)ethyl)cyclohexyl)benzofuryl-2-methylcarbamate]: the Ki in test [1] (setting [5]) was 2.58 nM; in test [2] (setting [6]), 2.63 nM; in test [3] it was 5.73 nM; in test [4], 6.53 nM.

Take `O=C(N[C@H]1CC[C@H](CCN2CCN(c3nsc4ccccc34)CC2)CC1)OCc1cccs1` [III-13, trans-(4-(2-(4-(benzo[d]isothiazol-3-yl)piperazin-1-yl)ethyl)cyclohexyl)thienyl-2-methylcarbamate]: the Ki is 0.6 nM in test [1] (setting [7]), 1.76 nM in test [2] (setting [6]), 2.54 nM in test [3] and 0.95 nM in test [4].

As to `O=C(NCCc1ccccc1)N[C@H]1CC[C@H](CCN2CCN(c3nsc4ccccc34)CC2)CC1` [IV-2, trans-1-(4-(2-(4-(benzo[d]isothiazol-3-yl)piperazin-1-yl)ethyl)cyclohexyl)-3-phenylethyl urea], the inhibition constant Ki in test [1] (setting [7]) was 4.21 nM; in test [2] (setting [6]) it was 8.03 nM; in test [3], 9.15 nM; in test [4], 3.81 nM.

As for `O=C(Nc1ccco1)N[C@H]1CC[C@H](CCN2CCN(c3nsc4ccccc34)CC2)CC1` [IV-4, trans-1-(4-(2-(4-(benzo[d]isothiazol-3-yl)piperazin-1-yl)ethyl)cyclohexyl)-3-(furan-2-yl)urea], the Ki in test [1] (setting [5]) was found to be 1.04 nM; in test [2] (setting [6]) it was 2.64 nM; in test [3], 0.8 nM; in test [4], 1.04 nM.

For the molecule `O=C(Nc1cc2ccccc2s1)N[C@H]1CC[C@H](CCN2CCN(c3nsc4ccccc34)CC2)CC1` [IV-5, trans-1-(benzo[b]thien-2-yl)-3-(4-(2-(4-(benzo[d]isothiazol-3-yl)piperazin-1-yl)ethyl)cyclohexyl)urea], the inhibition constant Ki in test [1] (setting [7]) worked out at 8.93 nM; in test [2] (setting [6]) it was 14.8 nM; in test [3], 6.77 nM; in test [4], 10 nM.

Take `COc1cccc(NC(=O)N[C@H]2CC[C@H](CCN3CCN(c4nsc5ccccc45)CC3)CC2)c1` [IV-9, trans-1-(4-(2-(4-(benzo[d]isothiazol-3-yl)piperazin-1-yl)ethyl)cyclohexyl)-3-(3-methoxyphenyl)urea]: the Ki was 2.84 nM in test [1] (setting [7]), 2.88 nM in test [2] (setting [6]), 3.01 nM in test [3] and 2.71 nM in test [4].

Consider `O=C(Nc1cccc([N+](=O)[O-])c1)N[C@H]1CC[C@H](CCN2CCN(c3nsc4ccccc34)CC2)CC1` [IV-10, trans-1-(4-(2-(4-(benzo[d]isothiazol-3-yl)piperazin-1-yl)ethyl)cyclohexyl)-3-(3-nitrophenyl)urea], for which the Ki came out at 5.01 nM in test [1] (setting [5]), 9.07 nM in test [2] (setting [6]), 3.64 nM in test [3] and 4.15 nM in test [4].

`O=C(Nc1ccccc1)N[C@H]1CC[C@@H](CCN2CCN(c3nsc4ccccc34)CC2)CC1` [IV-12, cis-1-(4-(2-(4-(benzo[d]isothiazol-3-yl)piperazin-1-yl)ethyl)cyclohexyl)-3-phenylurea]: the Ki is 2.4 nM in test [1] (setting [7]), 5.14 nM in test [2] (setting [6]), 1.86 nM in test [3] and 2.05 nM in test [4].

As for `O=C(Nc1ccco1)N[C@H]1CC[C@@H](CCN2CCN(c3nsc4ccccc34)CC2)CC1` [IV-14, cis-1-(4-(2-(4-(benzo[d]isothiazol-3-yl)piperazin-1-yl)ethyl)cyclohexyl)-3-(furan-2-yl)urea], the Ki in test [1] (setting [5]) came to 1.82 nM; in test [2] (setting [6]), 6.09 nM; in test [3] it was 2.07 nM; in test [4], 2.3 nM.
